According to the supplement of paper PMC11417369:
Some of the results follow.

Tested on: PfAP2-HC AP2 domain (GST-tagged)
Assay: gcPBM binding intensity (ln(normalized median fluorescence intensity)); higher = stronger DNA binding
Procedure, shortened: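 Plasmodium falciparum DNA-binding domains carrying a GST tag were expressed in E. coli and applied for 1 h, at about 25 μg on average, to an Agilent 4 × 180k array. The array held primer-extended double-stranded 36-bp intergenic genomic probes together with negative controls, and binding took place in 1× PBS with 1% milk, 0.2 mg/ml BSA, 0.5% salmon testes DNA and 0.03% Triton X-100. An Alexa488 anti-GST antibody detected bound protein, and the array was scanned at 488 nm. Binding intensity is taken as the highest Masliner-normalised natural-log median intensity across replicate spots of either probe orientation.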

Row | Sequence | gcPBM binding intensity (ln)
1 | TGTCTTATATATATTACACACTATATGAAAAAATAT [CACACA_site1487] | 9.6
2 | TAATTTAATAATTAGACACACATGTCTAAAATAAAA [CACACA_site2527] | 9.61
3 | AAAAGAAATTTGGGCACATGCGAATTTATAATTTAT [TGCATGCA_site960] | 9.71
4 | TAAAGTATTACAACCACACACACACCGATATATTAT [CACACA_site9382] | 10.8
5 | CAACATTTATATTTTACACACATCATTTAAGCGCTT [CACACA_site992] | 9.98
6 | ATTGTTTTATATAGAACACACATAAAAATCTATATG [CACACA_site6681] | 9.63
7 | TTATTATATAAAATAAATAACAAAAAAAATAAAATA [GTGCAC_negctrl_site548] | 9.56
8 | TTTGAAATAAATAATGCACACTCTACATATATACGT [CACACA_site2244] | 9.79
9 | CCTATCCATACATATACACACATATCTATTTATATA [CACACA_site1669] | 9.91
10 | AAATAAAATACAAGTTGTACTATAAGCTTTTTATAT [XGTACX_site8021] | 9.64
11 | AATATGGTTATATATATATATATATATATATATATT [GTGCAC_negctrl_site566] | 9.78
12 | CCTATCCAGACATATACACACATATCTATTTATATA [CACACA_site5001] | 9.91
13 | TATAAAAAATAATACACACACATGGCGACAAAATAA [CACACA_site2420] | 10.5
14 | TTTACTTTCCCAAGTTGTACTGCTTCTAAGCTTTTT [XGTACX_site2708] | 9.7
15 | AATGATAATATTTCCTTCTTTTTTACTTCTTTCTTT [CACACA_negctrl_site776] | 9.63
16 | AAAATGGTTTATAAATGTACATATATTATATATAAC [XGTACX_site7959] | 9.72
17 | AAAAAAAATTTCTTCTGTACGCATAAATTTTTATTA [XGTACX_site8721] | 9.49
18 | TATTTAATTTTTAAATGTACATATAAAATAATATAT [XGTACX_site2422] | 9.42
19 | TTTTTCAGAAAAGAAACACACATATATATATTTATA [CACACA_site2372] | 9.56
20 | CATATAAAATAATTCACACAAATATACAAATACCCA [CACACA_site5340] | 9.87
21 | CTTTATAAAATAAGAGTGCGTTATATTGAATTGTAT [GTGCAC_site9390] | 9.56
22 | ATATAAGATTTAAGAAGTACAATTATACAGTAGATC [XGTACX_site7501] | 9.75
23 | ATATAACATAGACACACACACATATAAATATATTAT [CACACA_site7865] | 10.6
24 | TTTTTATAACGTAATAAATAAAACGTCTATACTATA [XGTACX_negctrl_site176] | 9.7
